The supplement of paper PMC11417369
This is one part of the list.

test system: PF3D7_0420300 AP2 domain 1 (GST-tagged); assay: gcPBM binding intensity (ln(normalized median fluorescence intensity)); higher = stronger DNA binding
Method in brief: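 Alexa488 anti-GST antibody, scanned at 488 nm, detected GST-tagged P. falciparum DNA-binding domains that had been expressed in E. coli and incubated for 1 h on an Agilent 4 × 180k array. The array carried primer-extended double-stranded 36-bp intergenic genomic probes and negative controls. Binding intensity is the highest Masliner-normalised natural-log median intensity across replicate spots of either orientation of each probe.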

Row | Sequence | gcPBM binding intensity (ln)
1 | ATATCTATAATAAACACACACATATACCTATAGGTA [CACACA_site7596] | 9.73
2 | TATTATATGTATTGCACACCTTCAACAACTACTTCT [CACACA_site655] | 9.56
3 | GGGCATATAATATAAAGTACAGGACTATAAAAATAT [XGTACX_site4481] | 9.32
4 | ATTGTGCACTTATATGCACACATTTTAGTTTTTTTT [CACACA_site2028] | 9.44
5 | TATCACATATTATGATGTACAAGGATTCTGACTAAT [XGTACX_site1196] | 9.25
6 | TTTATTTATCTGAACACATGCAGACAAATAACATAT [TGCATGCA_site929] | 8.91
7 | ATTATATATAAACACACACACATGCATGCACATATA [CACACA_site4237] | 9.97
8 | CATAAACTTTATAACACACACTTATAAATATAAATA [CACACA_site6646] | 9.6
9 | GTTATAAAATATGGCACACAAAATGTAAGTAAATGA [CACACA_site1458] | 9.57
10 | GATCTTTAAATTTATTGTACATAAATGTATATGTTA [XGTACX_site1107] | 9.3
11 | ATATATTTTGTTATGGTGCGTAAGAAATATATTCTT [GTGCAC_site9825] | 9.22
12 | CATATAAACAATAACACACACCTAGGTACATGGAAA [CACACA_site4615] | 9.89
13 | CTTTTTAATTTATCGACACACGCATGAATAGAAATT [CACACA_site9112] | 9.19
14 | AAAGCAAATAATAAGTGTACGGGTCAATATATGCGT [XGTACX_site1519] | 9.76
15 | GAACAATATATTTGCACACAAAAAATATATATTTAT [CACACA_site3317] | 9.46
16 | GTTTACATCATTCTGGTGCAAAAAAAAAAAAAAATA | 8.83
17 | GGATAAAAAATATGTACACACATATAGATATCTATA [CACACA_site2693] | 9.52
18 | ATACAAGTATTAATTACACACTCAAAAAGAAAAAAC [CACACA_site5287] | 9.74
19 | GAATACTCATTTCTTTGTACATATATATGTGTATTT [XGTACX_site6411] | 9.57
20 | TAGATTTAAAAAAAAAAAAAATTTTTTTTTTTTTTT [TGCATGCA_negctrl_site593] | 8.68
21 | TTCATATGGAATAAAAGTACGTATTAAAACAATTTT [XGTACX_site8742] | 9.17
22 | TTTAATGAAAGAAACACATACGTATCAAAATATATG [TGCATGCA_negctrl_site510] | 9.19

Row | Sequence | gcPBM binding intensity (ln)
23 | TACGTTGTATATTTTTGTACATATTGAATTACAAAA [XGTACX_site5906] | 9.01
24 | TTTTAATAATTTATAAAAAAAAAAAAAAAATAAATA [TGCATGCA_negctrl_site419] | 8.82
25 | GTGTACAAAATATGGTAATAAAGTAGTTACATGAAT [CACACA_negctrl_site1775] | 9.47
26 | CTAAATTGTTAATAGAGTACATTTGTATAATATAAG [XGTACX_site594] | 9.1
27 | TTATGTTGTAAATACACACATACATATACATACACA [CACACA_site733] | 9.51
28 | AATAAAATATAATAATTAATATATATATATATATAA [GTGCAC_negctrl_site457] | 9.04
29 | TATGTGAAATAAGGATGTACAATTTTGATTTCCCCA [XGTACX_site8389] | 9.28
30 | TAATTTCTTAGGTATTGTACAAATATTATATGATAT [XGTACX_site256] | 9.16
31 | ATATATCTATAAAAGGCTTCCCACTTTTTTTGTCAA [TGCATGCA_negctrl_site332] | 9.07
32 | ATAATAAAAAAAATTAGTACATATATAAATATAAAT [XGTACX_site1937] | 9.28
33 | AGTACATTTTTGTGTGTGCACTAATATTATATACTT [GTGCAC_site9568] | 9.68
34 | ATTTATTTTATTTTCACACACAAAAATAAATATCCG [CACACA_site2414] | 9.58
35 | TAAATAATATCTATCACACACGCATAAATACAGATA [CACACA_site5449] | 9.73
36 | ATAAAAAAAAAAAAAAGTACACATATAAAAGTATTG [XGTACX_site8265] | 9.44
37 | TATAATGTATGTAGTGCACACCTCTATAATATATTA [CACACA_site8560] | 9.26
38 | ATTCTACCACGCGATATACACACTTGTAGACATCTT [CACACA_site188] | 9.47
39 | CGCAATTAAAATATGTGTCCTCATTTTATAACATTT [XGTACX_site5340] | 9.21
40 | AAATTTATGTGTGCCTGTACATATCAAAGATTTAAG [XGTACX_site8547] | 9.14
41 | ATATATATATATATATGTACATATACATATGTGCAA [XGTACX_site5604] | 9.14
42 | AAATGAATAAATAGGTCACACACAAATATATATAAA [CACACA_site8764] | 9.91
43 | AATAAATAAAGAAGTACACACATATATATATATATA [CACACA_site4314] | 9.38
44 | TATTTTTAAAATATAAGTAAAAAAATAATATAAACT [TGCATGCA_negctrl_site283] | 9.37

Row | Sequence | gcPBM binding intensity (ln)
45 | CAGACATATTAAAAGAGTACATATATATATATATAT [XGTACX_site1158] | 9.54
46 | TGTTTATTACTCAGGTGTACTCAATTTTTTTTTTTT [XGTACX_site3470] | 9.45
47 | TACACAAATATATACATACACACATATATACGCATA [CACACA_site394] | 9.79
48 | TAATATTGACTATATACACACATATATATATATATA [CACACA_site575] | 9.34
49 | TGTATAATATTTGGTGCACACAAATTAACAACTGTT [CACACA_site9245] | 9.46
50 | AATATTAAAATAAAAAGTACTTATTTATGTATGTTG [XGTACX_site2682] | 9.2
51 | TATTTACAAAAAAAATATAAAAAATATAAAATATAT [CACACA_negctrl_site575] | 9.04
52 | TTTATATAACAACAAAATGGAAATATATATGTATGT [TGCATGCA_negctrl_site98] | 9.53
53 | AAAAAAAAAAAAGAACGTACAAATTAATTTATAGAA [XGTACX_site5584] | 9.28
54 | TCTTCATATAAGAACACATGCAGATTTTTATTATTG [TGCATGCA_site682] | 9.16
55 | GATAAAGTACTTTATACACACAAATATTTATTTATA [CACACA_site7795] | 9.32
56 | TTATGTAAAAAAAAAAAAAAAAAAAAAAAAAAAAAA [CACACA_negctrl_site984] | 8.62
57 | CATATAATATAATTATGTACATATATAATAATATAC [XGTACX_site5278] | 9.31
58 | AAAAAAAAAAAAAAACGTACACATATTATGTTATTT [XGTACX_site5264] | 9.33
59 | TCATAAAAACTAATACGTACTTAAAAATATGAACTT [XGTACX_site2939] | 9.21
60 | AAAAAAAAGTTGTATTGTACAAAAAAAAAAAAAAAA [XGTACX_site8334] | 8.62
61 | GTACAAAAAAAAATAAAATACATATATATATATATA [GTGCAC_negctrl_site364] | 9.03
62 | AAAAAATTCATATATACACACACGCACATATATATA [CACACA_site4226] | 9.84
63 | GAATATATAAGATACACACACAAATTAAATATAAAA [CACACA_site2781] | 10.1
64 | AAAATATTTCATATATGTACTTAAAAAAAAAAAAAA [XGTACX_site5399] | 8.71
65 | TATTATATATATGTTGACATATTTGTACACTCCACT [TGCATGCA_negctrl_site200] | 9.38
66 | CACTTTTCTGGAAAAATTCCCACATTTTTTTATTAA [GTGCAC_negctrl_site322] | 8.98

Row | Sequence | gcPBM binding intensity (ln)
67 | AAAAAAAAAAAAAACACACACACACGCATAAATATA [CACACA_site6217] | 10.1
68 | TTTGTTAATATAAAAACACACAAAAATAACATAAAA [CACACA_site2619] | 9.55
69 | TCATATTGGCTGTTCTGTACTTATAAGTTTTAAAGA [XGTACX_site5593] | 9.33
70 | ATGTAATATTTACAACGTACAAATTATAAACATATT [XGTACX_site603] | 9.39
71 | TATATTAAAAAAGAGGTGCATTCGTAAGAGGTTAAA [GTGCAC_site9720] | 9.41
72 | AATCCCCACTTGTCAAGTACATATATCATGGATGAA [XGTACX_site3486] | 9.09
73 | TATTTATAACAAAGGTTAAATTAAAACTAATCCACA [TGCATGCA_negctrl_site3] | 9.17
74 | GCCAAAATCTAATTTACACACTTATTAAATAATTAC [CACACA_site6251] | 9.35
75 | GACATAGTCATATACTGTACTTTATATTATTGTGTA [XGTACX_site6636] | 9.36
76 | TTTTTTTTCATTGGTTGTACAATATTTATAATTCAC [XGTACX_site7036] | 9.37
77 | TTTTTTTTTTTTTTTTGTACTTATAAAAAATTTTTT [XGTACX_site1249] | 8.18
78 | TACAGATATAAACACACACACATATATATATATATA [CACACA_site4846] | 9.85
79 | ATCTGACAAAAGTGTACACATATATATATATATATA [CACACA_site4814] | 9.22
80 | AAATGGGAAATTTCATGTACTCATTTACCCTTATTA [XGTACX_site4740] | 8.93
81 | CACATAATGAAAAATACACACATGTATATTTATAAA [CACACA_site2736] | 9.34
82 | GTTAATTTTTGTATAGTGCAAAAATATAATAGTATG | 9.16
83 | TGTTGGTATGTGAATGCATGCATATAAGTCTATCTG [TGCATGCA_site780] | 9.19
84 | TTGAAGTATAATAAAGTGCAAAATTATAATGATCTT [GTGCAC_site9639] | 9.31
85 | AAGGGAAAAAAAAAAGCACACATACGTAAATATATA [CACACA_site7960] | 9.48
86 | TATTTCACACAGTATATATATATATATATATATATA [TGCATGCA_negctrl_site118] | 9.21
87 | AAAAGATAAAATTATGCACACATACGAATAATTTTA [CACACA_site8497] | 9.42
88 | TTATAATATAAAAAATGTACATTAAAAAAAAAGATT [XGTACX_site8950] | 9.4
